Test results: US9650358B2 (priority 2013, dated 2017)

Tests used:
A431 cells = assay: cells; conditions: Homo sapiens, A-431, 24 h, read-out: A431 viability EC50
H929 cells = assay: cells; conditions: Homo sapiens, NCI-H929, 24 h, read-out: H929 viability EC50

Q: With CN1CCC(CCNc2cc(-c3ccc4ncn(Cc5cccc(F)c5)c4c3)c(Cl)cn2)CC1 [Example 44, 5-chloro-4-[1-(3-fluorobenzyl)-1H-benzimidazol-6-yl]-N-[2-(1-methylpiperidin-4-yl)ethyl]pyridin-2-amine] as the compound, how does the EC50 (A431 cells) read?
A: 71 nM

Q: What about the EC50 (H929 cells) of the same compound?
A: 260 nM

Q: Fc1cccc(Cn2cnc3ccc(-c4cc(NC5CC6(CCCNC6)C5)ncc4Cl)cc32)c1 (stereo not drawn) [Example 104, N-{5-chloro-4-[1-(3-fluorobenzyl)-1H-benzimidazol-6-yl]pyridin-2-yl}-6-azaspiro[3.5]nonan-2-amine] was tested. Which EC50 (A431 cells) did it give?
A: 29 nM

Q: What about the EC50 (H929 cells) of the same compound?
A: 82 nM

Q: What does the source list for Fc1cccc(Cn2cnc3ccc(-c4cc(NC5CC6(CCNCC6)C5)ncc4Cl)cc32)c1 [Example 105, N-{5-chloro-4-[1-(3-fluorobenzyl)-1H-benzimidazol-6-yl]pyridin-2-yl}-7-azaspiro[3.5]nonan-2-amine]?
A: EC50 (A431 cells): 15 nM; EC50 (H929 cells): 95 nM

Q: For Fc1cccc(Cn2cnc3ccc(-c4cc(NC5CC6(CCNC6)C5)ncc4Cl)cc32)c1 (stereo not drawn) [Example 109, N-{5-chloro-4-[1-(3-fluorobenzyl)-1H-benzimidazol-6-yl]pyridin-2-yl}-6-azaspiro[3.4]octan-2-amine], which EC50 (A431 cells) is on record?
A: 26 nM

Q: And the EC50 (H929 cells)?
A: 95 nM

Q: How did the EC50 (A431 cells) turn out when O=C(Nc1cc(-c2ccc3nnn(CCc4cccc(F)c4)c3c2)c(Cl)cn1)[C@@H]1CCCNC1 [Example 115, (3R)—N-(5-chloro-4-{1-[2-(3-fluorophenyl)ethyl]-1H-benzotriazol-6-yl}pyridin-2-yl)piperidine-3-carboxamide] was run?
A: 170 nM

Q: What about the EC50 (H929 cells) of the same compound?
A: 250 nM

Q: How did the EC50 (A431 cells) turn out when O=C(Nc1cc(-c2cc3c(cc2F)ncn3Cc2cccc(F)c2)c(Cl)cn1)[C@@H]1CCCNC1 [Example 135, (3R)—N-{5-chloro-4-[5-fluoro-1-(3-fluorobenzyl)-1H-benzimidazol-6-yl]pyridin-2-yl}piperidine-3-carboxamide] was run?
A: 11 nM

Q: And the EC50 (H929 cells)?
A: 110 nM

Q: What does the source list for C[C@H](c1cccc(F)c1)n1cnc2ccc(-c3cc(NC(=O)[C@@H]4CCCNC4)ncc3Cl)cc21 [Example 144, (3R)—N-(5-chloro-4-{1-[(1R)-1-(3-fluorophenyl)ethyl]-1H-benzimidazol-6-yl}pyridin-2-yl)piperidine-3-carboxamide]?
A: EC50 (A431 cells): 6 nM; EC50 (H929 cells): 48 nM

Q: How did the EC50 (A431 cells) turn out when CC(C(=O)Nc1cc(-c2ccc3ncn(Cc4cccc(F)c4)c3c2)c(Cl)cn1)n1ccccc1=O (stereo not drawn) [Example 183, N-{5-chloro-4-[1-(3-fluorobenzyl)-1H-benzimidazol-6-yl]pyridin-2-yl}-2-(2-oxopyridin-1(2H)-yl)propanamide] was run?
A: 31 nM

Q: What about the EC50 (H929 cells) of the same compound?
A: 50 nM

Q: O=C1CC(C(=O)Nc2cc(-c3ccc4ncn(Cc5cccc(F)c5)c4c3)c(Cl)cn2)C1 [Example 189, N-{5-chloro-4-[1-(3-fluorobenzyl)-1H-benzimidazol-6-yl]pyridin-2-yl}-3-oxocyclobutanecarboxamide] was tested. Which EC50 (A431 cells) did it give?
A: 78 nM

Q: What about the EC50 (H929 cells) of the same compound?
A: 73 nM

Q: How did the EC50 (A431 cells) turn out when CN1CC(C(=O)Nc2cc(-c3ccc4ncn(Cc5cccc(F)c5)c4c3)c(Cl)cn2)C1 [Example 192, N-{5-chloro-4-[1-(3-fluorobenzyl)-1H-benzimidazol-6-yl]pyridin-2-yl}-1-methylazetidine-3-carboxamide] was run?
A: 140 nM

Q: And the EC50 (H929 cells)?
A: 96 nM

Q: For O=C1NC2CC(C(=O)Nc3cc(-c4ccc5ncn(Cc6cccc(F)c6)c5c4)c(Cl)cn3)CC2O1 (stereo not drawn) [Example 204, N-{5-chloro-4-[1-(3-fluorobenzyl)-1H-benzimidazol-6-yl]pyridin-2-yl}-2-oxohexahydro-2H-cyclopenta[d][1,3]oxazole-5-carboxamide], which EC50 (A431 cells) is on record?
A: 270 nM

Q: What about the EC50 (H929 cells) of the same compound?
A: 56 nM

Q: Which results are given for O=C(Nc1cc(-c2ccc3ncn(Cc4cccc(F)c4)c3c2)c(Cl)cn1)c1cn[nH]c1 [Example 208, N-{5-chloro-4-[1-(3-fluorobenzyl)-1H-benzimidazol-6-yl]pyridin-2-yl}-1H-pyrazole-4-carboxamide]?
A: EC50 (A431 cells): 3500 nM; EC50 (H929 cells): 38 nM

Q: What does the source list for Fc1cccc(Cn2cnc3ccc(-c4cc(N[C@H]5CC[C@H](NCc6ccccn6)CC5)ncc4Cl)cc32)c1 [Example 225, trans-N-{5-chloro-4-[1-(3-fluorobenzyl)-1H-benzimidazol-6-yl]pyridin-2-yl}-N′-(pyridin-2-ylmethyl)cyclohexane-1,4-diamine]?
A: EC50 (A431 cells): 27 nM; EC50 (H929 cells): 76 nM

Q: How did the EC50 (A431 cells) turn out when Fc1cccc(Cn2cnc3ccc(-c4cc(N[C@H]5CC[C@H](NCc6ccncc6)CC5)ncc4Cl)cc32)c1 [Example 227, trans-N-{5-chloro-4-[1-(3-fluorobenzyl)-1H-benzimidazol-6-yl]pyridin-2-yl}-N′-(pyridin-4-ylmethyl)cyclohexane-1,4-diamine] was run?
A: 24 nM

Q: And the EC50 (H929 cells)?
A: 96 nM

Q: What does the source list for COCCCN[C@H]1CC[C@H](Nc2cc(-c3ccc4ncn(Cc5cccc(F)c5)c4c3)c(Cl)cn2)CC1 [Example 245, trans-N-{5-chloro-4-[1-(3-fluorobenzyl)-1H-benzimidazol-6-yl]pyridin-2-yl}-N′-(3-methoxypropyl)cyclohexane-1,4-diamine]?
A: EC50 (A431 cells): 31 nM; EC50 (H929 cells): 79 nM
